# Several values for one entry are separate records, joined by “and”; a condition that tells them apart may be missing. Equal values may be shown once. In all, about 94,000 compounds went through this assay and about 4,000 (4.3%) were called active. The inconclusive results got no clear call from the source; some entries with a clear call stand among them for comparison. Calls follow the shape of the dose curve; as a rule, active = well fitted inhibition curve with a large enough effect; inconclusive = small, poorly fitted or top-dose-only effect; inactive = no such curve, though single readings can be large or run the other way. A potency beside an inconclusive call is a rough fit, not a confirmed value.
# Test: Cytotoxic Profiling in NIH 3T3 Cell Line of Diverse Libraries Using Quantitative High-Throughput Screening; also: nearly all actives have a fitted effect of over 55% in size
# Conditions: NIH 3T3 viability, CellTiter-Glo ATP luminescence, 48-72 h; series mostly up to 96.7 µM
# Summary of the method: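 NIH 3T3 cells at 400 cells/well received 23 nL of compound by pintool and were incubated 48 or 72 h at 37 °C. Viability was read as ATP-coupled CellTiter-Glo luminescence.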
# Potency is read from the fitted curve at half-maximal effect; tags tell the direction and shape of the fitted curve.
row,Structure (SMILES),Potency
1,CCc1ccc(NC(=O)c2ccc3c(c2)N(C)C2CCCCN2C3=O)cc1 (stereo unspecified),"inconclusive: 44.7 µM [inhibitor, partial curve, poor fit]"
2,CN1CCN(c2nc3c(c(=O)[nH]2)CCN(Cc2ccc(Cl)c(F)c2)CC3)CC1,inactive
3,Cc1ccc(C(=O)NC2CCN(c3cc(C(F)(F)F)ncn3)CC2)s1,"inconclusive: 28.2 µM [inhibitor, partial curve, poor fit]"
4,N#Cc1cccc(CN2CCC[C@H]2c2nc(-c3ccc(OC4CCCCC4)nc3)no2)c1,"inconclusive: 89.1 µM [inhibitor, partial curve]"
5,Cc1ccc(CNC(=O)Cn2c(N3CCN(c4ccccc4)CC3)nc(C)cc2=O)cc1,"inconclusive: 50.1 µM [inhibitor, partial curve, poor fit]"
6,COC(=O)[C@@H]1Cc2ncn(C)c2CN1S(=O)(=O)c1ccc(Cl)cc1,"inconclusive: 126 µM [inhibitor, single point]"
7,O=C1CCN(S(=O)(=O)c2ccccc2)CCCN(Cc2cccc(F)c2)CCN1,inactive
8,Cc1ccsc1-c1[nH]nc2ncc(-c3ccc(CO)cc3)nc12,"inconclusive: 7.94 µM [inhibitor, full curve, poor fit]"
9,Cn1nccc1C(=O)N1CCC2(CC1)OC(=O)N(Cc1ccccc1C#N)C2(C)c1ccccc1 (stereo unspecified),"inconclusive: 10 µM [inhibitor, full curve, poor fit]"
10,CC1Oc2ccc(NC(=O)c3ccc(F)cc3)cc2CN(Cc2ccccc2Cl)C1=O (stereo unspecified),"inconclusive: 31.6 µM [inhibitor, full curve]"
11,O=C1CO[C@H]2CN(Cc3cccnc3)C[C@H]2N1Cc1cccc(C(F)(F)F)c1,inactive
12,Cc1cc(-c2cc3[nH]ccc3c(C(=O)NCc3c(C)cc(C)[nH]c3=O)n2)ccn1,"inconclusive: 79.4 µM [inhibitor, partial curve]"
13,O=C(c1cccc(F)c1)N1CCC(n2cc(-c3nc(-c4ccccc4)no3)nn2)C1 (stereo unspecified),"inconclusive: 11.2 µM [inhibitor, full curve, poor fit]"
14,COC(=O)N(Cc1cccc(N2CCN([S+](=O)([O-])c3c(Cl)cccc3Cl)CC2)c1F)C(C)C,"inconclusive: 14.1 µM [inhibitor, full curve]"
15,Cc1cc(NC(=O)N2CCCC(Cn3cnc4cccnc43)C2)ccc1Br (stereo unspecified),"inconclusive: 44.7 µM [inhibitor, partial curve, poor fit]"
16,COc1ccccc1-c1ccc(CN2CCCCC2C(=O)N2CCC(c3ccccc3)CC2)cc1 (stereo unspecified),active: 15.8 µM and active: 39.8 µM

# Source: PubChem BioAssay AID1345082 (National Center for Advancing Translational Sciences (NCATS), 2018)
